Experimental data published in article PMC4336329 (PLoS ONE, 2015).
Hit rate of the full screen: of about 310,000 compounds, about 14,000 (4.5%) showed an effect of 50% or more. Effects have a minus sign here. The list shows a part of the results.

Target: human ether-à-go-go-related gene (hERG) potassium channel (human, UniProt Q12809)
Test: primary screen, population patch clamp on CHO cells stably expressing hERG
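Also: peak tail current of the secondary pulse compared with the same well before compound.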

human ether-à-go-go-related gene (hERG) potassium channel, sequence (Q12809 whole entry, looked up): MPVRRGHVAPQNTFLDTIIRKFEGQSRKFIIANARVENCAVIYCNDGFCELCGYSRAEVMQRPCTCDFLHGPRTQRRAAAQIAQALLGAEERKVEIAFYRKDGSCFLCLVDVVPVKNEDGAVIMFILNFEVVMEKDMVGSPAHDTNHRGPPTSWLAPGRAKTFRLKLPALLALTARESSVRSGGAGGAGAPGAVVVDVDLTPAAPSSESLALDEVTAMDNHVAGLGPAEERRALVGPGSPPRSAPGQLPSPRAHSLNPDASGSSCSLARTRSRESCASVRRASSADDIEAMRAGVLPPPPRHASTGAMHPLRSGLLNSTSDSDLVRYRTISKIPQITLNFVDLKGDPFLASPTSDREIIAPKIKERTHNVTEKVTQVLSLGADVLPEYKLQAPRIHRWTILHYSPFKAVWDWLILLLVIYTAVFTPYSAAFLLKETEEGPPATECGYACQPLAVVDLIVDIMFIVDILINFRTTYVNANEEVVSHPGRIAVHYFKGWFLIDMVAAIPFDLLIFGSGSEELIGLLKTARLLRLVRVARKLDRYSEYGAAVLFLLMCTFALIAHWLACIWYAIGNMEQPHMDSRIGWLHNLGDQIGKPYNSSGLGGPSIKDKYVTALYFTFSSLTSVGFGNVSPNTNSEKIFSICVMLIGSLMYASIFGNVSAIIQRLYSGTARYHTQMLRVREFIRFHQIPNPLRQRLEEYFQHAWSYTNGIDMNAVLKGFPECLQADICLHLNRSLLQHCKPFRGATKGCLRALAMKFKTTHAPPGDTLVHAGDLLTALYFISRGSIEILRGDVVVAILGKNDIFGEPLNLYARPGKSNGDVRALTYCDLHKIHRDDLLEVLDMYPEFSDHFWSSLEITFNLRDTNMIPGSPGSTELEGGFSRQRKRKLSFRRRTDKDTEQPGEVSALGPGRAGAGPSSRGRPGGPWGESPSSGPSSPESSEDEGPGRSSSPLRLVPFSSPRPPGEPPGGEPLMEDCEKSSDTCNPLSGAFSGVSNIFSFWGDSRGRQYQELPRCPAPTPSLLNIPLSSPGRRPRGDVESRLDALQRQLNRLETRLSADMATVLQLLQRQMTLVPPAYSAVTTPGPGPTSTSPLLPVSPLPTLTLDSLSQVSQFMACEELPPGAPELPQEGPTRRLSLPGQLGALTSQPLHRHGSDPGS

| SMILES | hERG current change (%, negative = inhibition) at 10uM |
| --- | --- |
| O=C(N/C(=C\c1cccnc1)c1nc2ccccc2[nH]1)c1cccc(Br)c1 | -54.9% |
| Cc1ccc(NC2CCCN(C(=O)CCc3cn[nH]c3)C2)cc1C (centres unmarked) | -8.47% |
| C[n+]1cccc(/C=N/NC(=O)CC23CC4CC(CC(C4)C2)C3)c1.[I-] | 11.4% |
| O=c1cc(CSc2nc(NCc3ccccc3)c3ccccc3n2)nc2ccc(Cl)cn12 | -59.3% |
| CCCCN1C(=O)C(NC(C)=O)c2cc(Br)ccc21 (centres unmarked) | -10.1% |
| Cc1ccc(CNC(=O)CSc2ccc(-c3ccccn3)nn2)cc1 | -15.7% |
| CC(=O)c1ccc(N2CCN(C(=O)C3CCN(S(=O)(=O)c4ccc5c(c4)CC(C)N5C(=O)C4CC4)CC3)CC2)cc1 (centres unmarked) | -8.83% |
| CCN1C(=O)N(CC)C(O)(c2ccccc2)C1(O)c1ccccc1 (centres unmarked) | 2.69% |
| O=C(NCc1ccccn1)C1COc2ccccc2O1 (centres unmarked) | 5.93% |
| O=C(CCl)Nc1ccccc1C(=O)NCc1ccccc1 | 9.93% |
| O=C(Nc1ccc(Br)cc1F)c1sccc1-n1cccc1 | 1.19% |
| Cc1sc2ncnc(SCC(=O)N3CCCC(C(F)(F)F)C3)c2c1C (centres unmarked) | -4.47% |
| CC(=O)c1c(C)[nH]c(C(=O)Nc2cc(C)ccc2C)c1C | -3.14% |
| CCOc1ccccc1C(=O)Nc1nnc(SCC(=O)N2CCOCC2)s1 | 16.7% |
| CCn1c(COc2ccc3c(c2)CCCC3)nnc1SCC(=O)Nc1ccc(C(=O)OC)cc1 | 5.43% |
| Cn1ccnc1SCC(=O)c1ccc(F)cc1 | 17% |
| Cc1ccc(C(=O)COC(=O)C2CCC2)cc1 | 12.9% |
| Cc1ccc(C(C)C)c(OCC(=O)NC2CCN(C)CC2)c1 | -12.4% |
| O=C(c1ccccc1CCc1ccccc1)N1CCOCC1 | 9.4% |
| CN(C(=O)c1ccc(NC(=O)Cc2cccc(NC(=O)C3CCCN(C(=O)C4CCCC4)C3)c2)cc1)C1CCCC1 (centres unmarked) | 6.86% |
| Cc1ccc(-c2csc3nnc(SCC(=O)NCc4ccc5c(c4)OCO5)n23)cc1 | -32.4% |
| Cc1ccc(C(=O)Nc2cccnc2)cc1S(=O)(=O)N1CCCCC1 | -2.38% |

| SMILES | hERG current change (%, negative = inhibition) at 10uM |
| --- | --- |
| CCOc1cc(C(=O)N(C)CC(=O)Nc2cccc(F)c2)ccc1OCC(=O)N1CCCCC1 | -14.1% |
| Cc1cccc(Nc2nc(N)c([N+](=O)[O-])c(NCc3ccccc3)n2)c1 | 6.43% |
| COc1ccc(NC(=O)C2Cc3ccccc3CN2C(=O)c2ccccc2)cn1 (centres unmarked) | 0.984% |
| CC(OC(=O)COc1ccc(C#N)cc1)C(=O)Nc1ccc(Cl)cn1 (centres unmarked) | -43.4% |
| COc1ccccc1-c1nc(SCC(=O)NCc2ccco2)c2c(=O)n(C)c(=O)n(C)c2n1 | 5.63% |
| CC(C)c1ccc(Nc2nc(NCc3ccco3)nc(N3CCOCC3)n2)cc1 | 1.48% |
| COc1ccc(/C=C2\CCc3ccccc3C2=O)cc1O | -0.423% |
| CC1CCN(c2oc(Cc3cccc4ccccc34)nc2C#N)CC1 | -5.47% |
| C/C(=N\NC(=O)c1cc(C)[nH]n1)c1cccs1 | 18.5% |
| COCCOC(=O)C1=C(N)Oc2c(c(=O)oc3ccccc23)[C@@]12C(=O)Nc1ccccc12 | 11.8% |
| CC(=O)c1ccc(-c2ccc(C(=O)NC3CC(C)(C)NC(C)(C)C3)o2)cc1 | -122% |
| CCc1ccc(NC(=O)CN2CCC(C(=O)c3ccc(OC)cc3)CC2)cc1 | -62.8% |
| CC12COC3(C(=O)Nc4ccc5ccccc5c4)CC1CCC32C (centres unmarked) | 2.36% |
| CN(C)c1nnnn1-c1ccc(Oc2ccccc2)cc1 | -3.26% |
| COc1ccc(OC)c2c1cc(C(=O)N[C@H](C(=O)N1CCC[C@H]1C(=O)O)C(C)C)n2C | 18.5% |
| CCOc1ccc2nc(NC(=O)C(NS(=O)(=O)c3cccs3)C(C)C)sc2c1 (centres unmarked) | 6.36% |
| CCOC(=O)N1CCC(=NNC(=O)COc2ccc(OC)cc2)CC1 | 8.98% |
| c1ccc2c(c1)ncn2Cc1nnc2sc(-c3ccc4c(c3)OCO4)nn12 | -2.08% |
| CC1CCN(CCNC(=O)C2CCN(S(=O)(=O)c3cccc4nsnc34)CC2)CC1 | -5.91% |
| O=C(/C=C/c1ccc(Cl)c([N+](=O)[O-])c1)Nc1ccc(N2CCCC2)c(Cl)c1 | 18.1% |
| CCn1c(=O)c2sccc2n2c(CCCC(=O)N3CCN(c4ccccn4)CC3)nnc12 | -17.6% |
| COC(=O)c1ccc(CN(c2ccc(C(=O)O)c(O)c2)S(=O)(=O)c2ccc(Cl)c([N+](=O)[O-])c2)cc1 | 16% |

| SMILES | hERG current change (%, negative = inhibition) at 10uM |
| --- | --- |
| Cc1cc(C)nc(SCC(=O)Nc2cccc(S(=O)(=O)N(C)C)c2)n1 | -4.46% |
| CCC1CCCCN1CCCNC(=O)COc1cc(=O)n(C)c2ccccc12 (centres unmarked) | -1.99% |
| C#CCNC(=O)C1=C[C@H](C(C)(C)C)C[C@H](OCc2ccc(CO)cc2)O1 | -18.7% |
| COc1cc(CN2CCNC(=O)C2CC(=O)N(Cc2nccn2C)C(C)C)cc(OC)c1 (centres unmarked) | -0.0896% |
| CN(C)S(=O)(=O)c1ccc(NC(=O)N2CCOCC2)cc1 | 15.5% |
| CO/N=C(/CNC(=O)c1ccc(Cl)cc1Cl)c1ccc(Cl)cc1 | -7.46% |
| COc1ccc(C)cc1NC(=O)NCc1ccccc1F | -4.83% |
| CC1CCN(C(=O)CN2C(=O)COc3ccc(Cl)cc32)CC1 | 9.12% |
| CCN(CC)C(=O)NC1CCCCCCC1 | 14.2% |
| CC(=O)c1cccc(NC(=O)CC2CCCC2)c1 | 11.2% |
| CCn1c(=O)c2sccc2n(Cc2cc(C(=O)OC)ccc2OC)c1=O | -9.52% |
| CS(=O)(=O)Nc1ccc(S(=O)(=O)N2CCCCCC2)cc1 | -65.4% |
| Cc1ccc(NC(=O)CN(C)C(=O)c2ccc(Cl)c([N+](=O)[O-])c2)cc1 | -52.1% |
| CN(C)C(=O)COC(=O)c1ccccc1Nc1ccc(SC(F)F)cc1 | -44.3% |
| O=C(NC(Cc1ccccc1)C(=O)O)c1cccnc1Cl (centres unmarked) | 10.9% |
| CCNC(=O)C1Cc2ccccc2CN1S(=O)(=O)c1ccc(F)cc1 (centres unmarked) | -3.64% |
| O=C(CCNS(=O)(=O)c1ccccc1)N1CCCCCCC1 | 2.14% |
| Cc1cc(C)c(NC(=O)Cn2nnc(C(=O)NCc3ccc4c(c3)OCO4)c2N)c(C)c1 | 8.04% |
| O=C(NC(=O)c1csnn1)Nc1ccccc1Cl | 9.03% |
| CCc1c(C)nc2ncnn2c1N1CCCC(C(=O)NCCc2ccc(OC)cc2)C1 (centres unmarked) | -19.6% |
| Cc1cccc(N(C(=O)c2ccco2)C(C(=O)NC2CCCC2)c2cccnc2)c1C (centres unmarked) | -4.13% |
| CCN(CC)CCNC(=O)Cn1ncc2ccccc2c1=O | 7.05% |

| SMILES | hERG current change (%, negative = inhibition) at 10uM |
| --- | --- |
| Cc1ccc(CNC(=O)C(=O)Nc2nccs2)cc1 | 15% |
| CC(C)CNC(=O)COC(=O)c1ccc(Cl)c(S(=O)(=O)N2CCc3ccccc32)c1 | 9.02% |
| N#Cc1ccc(NC(=O)CN2C(=O)NC3(CCCC3)C2=O)cc1Cl | 18.5% |
| CCc1ccccc1N(CC(=O)NCc1ccccc1)C(=O)CCC(=O)Nc1ccccn1 | 7.38% |
| CC1(C)CN(c2cccc(-c3ccnc4ncnn34)c2)C1=O | 7.66% |
| Cc1nc2sc3c(c2c(=N)n1N)CCCC3 | 4.73% |
| O=C(Nn1cnnc1)c1cc2c(s1)CCCCC2 | -0.239% |
| CC(C)NC(=O)NC(=O)COC(=O)c1ccc(F)cc1F | 1.75% |
| CC(C)Oc1ccc(S(=O)(=O)N2CCOCC2)cc1NC(=O)C1CCC1 | -0.177% |
| CC/C=C/C(=O)N1CC2(CC(c3cccc(NC(=O)COc4ccc(Cl)cc4)c3)=NO2)C[C@H]1C(N)=O (some centres unmarked) | -64.7% |
| Cc1ccc2cc(C#N)c(SCC(=O)N3CCCc4ccccc43)nc2c1 | 10.8% |
| Cc1ccc(N=Nc2c(C)[nH]n(C(N)=S)c2=O)cc1C | 27.4% |
| CCC(=O)Nc1sc2c(c1C#N)CC(C)(C)NC2(C)C | -3.25% |
| CC(C)Cn1cnc2c1c(=O)n(CC(=O)Nc1ccc3c(c1)OCO3)c(=O)n2Cc1ccccc1 | -2.04% |
| Cc1ccc2c(c1)-c1cc(C)nn1C(c1ccc3c(c1)OCO3)N2 (centres unmarked) | -0.444% |
| COc1ccc(C(=O)N/C(=C\c2cn(C)c3ccccc23)C(=O)NCCN2CCOCC2)cc1OC | 21.1% |
| Cc1ccc2cc(CN(Cc3ccc4c(c3)OCO4)Cc3nnnn3Cc3ccco3)c(=O)[nH]c2c1C | -12.2% |
| COc1ccccc1C(=O)N/C(=C\c1cn(C)c2ccccc12)C(=O)NCCCn1ccnc1 | 3.22% |
| COc1ccc(CNC(=O)c2cccs2)cc1 | -11.1% |
| CCOc1ccc(NC(=O)CSc2nnc(CCNC(=O)c3ccc(OC)cc3)n2CC)cc1 | -26.7% |
